Data taken from PMC7718735.
Substitutions are numbered along the chain they refer to. Like-named read-outs stand apart in the source and are kept apart here. Results are given in words; binding and its absence hold for the method and conditions named. Some entries that bind do so weakly or less than the wild type. Values belong to the molecule of their own block, whether it stands above or below them.

By UniProt entry, the sequences of proteins in these tests, tags left out.
UniProt Q09825: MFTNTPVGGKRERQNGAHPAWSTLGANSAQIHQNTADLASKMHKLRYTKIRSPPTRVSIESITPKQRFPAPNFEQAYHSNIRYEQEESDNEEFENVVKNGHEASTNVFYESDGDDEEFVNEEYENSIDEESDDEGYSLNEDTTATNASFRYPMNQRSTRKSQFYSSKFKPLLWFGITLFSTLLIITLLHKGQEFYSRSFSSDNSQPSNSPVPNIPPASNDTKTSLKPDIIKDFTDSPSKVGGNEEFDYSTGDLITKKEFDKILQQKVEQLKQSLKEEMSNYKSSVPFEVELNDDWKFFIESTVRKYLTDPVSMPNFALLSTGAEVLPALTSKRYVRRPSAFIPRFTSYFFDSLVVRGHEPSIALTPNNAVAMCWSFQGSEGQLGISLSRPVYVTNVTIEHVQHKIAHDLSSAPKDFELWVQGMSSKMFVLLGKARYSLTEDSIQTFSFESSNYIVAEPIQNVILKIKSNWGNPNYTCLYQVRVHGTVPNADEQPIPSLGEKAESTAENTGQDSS

Legend:
[1] = molecular target: T1, Lem2 MYTH bait (S. pombe) (UniProt Q10109); experiment: two-hybrid; split-ubiquitin membrane yeast two-hybrid (MYTH) in S. cerevisiae; bait-Cub-LexA-VP16 strains mated with the arrayed Nub prey library, diploids spotted in quadruplicate on SD-leu-trp-ade-his with 25 mM 3-AT, imaged every 24 hr for 4 days; positive by a colony density cutoff
T1 sequence: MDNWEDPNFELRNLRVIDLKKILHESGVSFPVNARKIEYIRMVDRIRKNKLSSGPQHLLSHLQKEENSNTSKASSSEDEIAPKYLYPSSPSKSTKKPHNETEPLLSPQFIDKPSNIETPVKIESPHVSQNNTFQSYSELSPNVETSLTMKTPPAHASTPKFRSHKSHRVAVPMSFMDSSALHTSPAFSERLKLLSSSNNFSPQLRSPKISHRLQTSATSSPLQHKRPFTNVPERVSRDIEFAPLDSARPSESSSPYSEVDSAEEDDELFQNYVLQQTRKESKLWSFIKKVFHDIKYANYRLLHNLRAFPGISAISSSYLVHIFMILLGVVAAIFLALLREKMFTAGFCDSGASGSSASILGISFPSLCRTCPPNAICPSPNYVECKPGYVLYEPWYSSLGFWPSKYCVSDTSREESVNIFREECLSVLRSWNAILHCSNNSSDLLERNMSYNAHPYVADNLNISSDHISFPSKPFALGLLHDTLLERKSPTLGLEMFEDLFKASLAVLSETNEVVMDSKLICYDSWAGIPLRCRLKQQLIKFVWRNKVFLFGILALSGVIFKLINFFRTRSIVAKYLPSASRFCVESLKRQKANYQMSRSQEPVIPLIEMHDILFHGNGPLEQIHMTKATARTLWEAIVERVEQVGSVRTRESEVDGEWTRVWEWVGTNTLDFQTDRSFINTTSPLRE

[2] = molecular target: T2, Cut11 MYTH bait (wild type) (S. pombe) (UniProt O13961); experiment: as above
T2 sequence: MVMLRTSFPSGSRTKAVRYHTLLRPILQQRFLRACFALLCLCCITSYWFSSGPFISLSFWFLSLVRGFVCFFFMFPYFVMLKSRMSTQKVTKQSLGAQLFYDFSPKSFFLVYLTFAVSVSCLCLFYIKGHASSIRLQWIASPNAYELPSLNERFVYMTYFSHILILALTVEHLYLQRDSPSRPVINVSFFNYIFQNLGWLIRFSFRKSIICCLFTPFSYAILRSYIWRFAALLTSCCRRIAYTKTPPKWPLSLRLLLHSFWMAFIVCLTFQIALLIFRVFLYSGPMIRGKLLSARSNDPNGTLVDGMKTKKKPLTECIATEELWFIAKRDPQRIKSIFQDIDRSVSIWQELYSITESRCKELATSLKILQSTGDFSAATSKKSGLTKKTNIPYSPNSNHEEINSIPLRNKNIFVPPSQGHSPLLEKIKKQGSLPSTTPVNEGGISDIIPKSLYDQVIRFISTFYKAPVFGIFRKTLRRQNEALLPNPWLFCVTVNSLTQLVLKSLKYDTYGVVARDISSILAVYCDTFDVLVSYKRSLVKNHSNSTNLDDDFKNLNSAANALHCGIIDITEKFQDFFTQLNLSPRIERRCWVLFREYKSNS

[3] = molecular target: T3, Cut11 L521F MYTH bait (S. pombe) (UniProt O13961); experiment: as above
T3 sequence: T2 sequence with L521F

[4] = molecular target: T2, Cut11 MYTH bait (wild type) (S. pombe); experiment: two-hybrid; MYTH confirmation: bait and prey plasmids sequentially transformed into the haploid reporter strain SLJ5572; ten-fold dilution series on SD-leu-trp-ade-his + 25 mM 3-AT at 30°
[5] = molecular target: T4, Cut11 C525R MYTH bait (S. pombe) (UniProt O13961); experiment: two-hybrid; split-ubiquitin membrane yeast two-hybrid (MYTH) in S. cerevisiae; bait-Cub-LexA-VP16 strains mated with the arrayed Nub prey library, diploids spotted in quadruplicate on SD-leu-trp-ade-his with 25 mM 3-AT, imaged every 24 hr for 4 days; positive by a colony density cutoff
T4 sequence: T2 sequence with C525R

[6] = molecular target: T2, Cut11 MYTH bait (wild type) (S. pombe); experiment: as above; remark: listed apart in the source
[7] = molecular target: T5, Cut11 T498I MYTH bait (S. pombe) (UniProt O13961); experiment: as above
T5 sequence: T2 sequence with T498I

[8] = molecular target: T3, Cut11 L521F MYTH bait (S. pombe); experiment: as above; remark: listed apart in the source
[9] = molecular target: T6, Lem2 MYTH bait (S. pombe), Q10109; experiment: as above; details: remark: other sources report otherwise
T6 chain: T1 sequence

binding [1]: binds | binding [2]: binds | binding [3]: binds
Molecule: Sad1 MYTH prey (from UniProt Q09825 1-514)

binding [4]: binds | binding [5]: no binding | binding [6]: binds | binding [7]: no binding | binding [8]: binds
B1: Tts1 MYTH prey (protein, UniProt Q9Y7Z5 1-279)
chain: MEPKQRVVKPLKERVLPVVKNTQFVWFSGQVIVLISSVLYALQAIPFRSAPPFLFKSAAFGAIVAYAIVLYKTYSPNLTSRASWNKHFFARLMLDDNVQYFILALSMLIDRPILFSLAPYAIYATFHISTYLRSVLLPAIYPNISDAKTASYASRVSNLLNQYTRSQFQPAMQLVASLETFLLFRLFFGVFLRKNSISRLVGYIFFLRMRYTNSHFTRASIKAVSLRMDRLVADNRVPPVIKNAWHTFKTYVSKFGASPVGTAQSRPTASSSTTAPSST

binding [9]: no binding
B2: Red1 MYTH prey, Q9UTR8 1-712 (protein)
chain: MSRSINLDELRKKALESKKKNEEDESNDSDKEDGEISEDDPVIDQSNSVPPMKVPTFPEQIPQLPPFDRFPGTNANFFPFGAPFMLPPALMFGPNTVPFFPQTASSNKTFSKRKRSSENSFNNRNKAKSSETSDSSNTSQSFKENRALKDTATSRPLALSSDTSYQKSEKAKSEKSPFLSTSKNSDANYSKTTNQKEAEKAVSQLFEVGVRFNDFIAEGIEPSVVHTLFLKLGLDSSSASSQGSLTLSADKAARSAKLRKIDSNLSDTHILPGDNGTPTVLPERKNLISLPLLKQDDWLSSSKPFGSSTPNVVIEFDSDDDGDDFSNSKIEQSNLEKPPSNSENGLTMSRSDYLALLRNKEEEIRRMTKLILRLESNKKPYRSPTSAADMKLPSVPVAAVDNKSKTHLDTFEKVVDLSSKADFVEAGPSISSSGASSSAATTNSDTTEQILEAPWLRKTEQIAVVHEEHPAQIKKSEIDILNNLIEKEEGELTKYQTLVKSKTEILTQLYTRKKQLLEQQGKGNVACLPKESDLSMDSITEVSAQADENSSQILSSKTSNAPNGTTETDFEDKVPLVDYISPFYRFKSYRFNQQFVERVPLKYRSLTYSNKIEPMKVFCKYETTGGVCNDDHCEASHFRDIKMTDDEIIQDLSRYIEGNDEIEKESYKSGLDIVMKNTDENTDFVDVATRIVEYHNLWKSERMTIPVAKVSI
